Source: the supplement of paper PMC8728848
Some of the results follow.

Key:
Test in all cases: glycan array binding signal (z-score within array); higher = stronger binding
Conditions in all cases: glycan notation: IUPAC condensed, linker removed
[1] = target: Fuc(a1-2)[Gal(a1-3)]Gal
How it was run: (§1)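 The binding signal is a Z-score computed within each array and averaged over linkers. Arrays of the same protein sequence at different concentrations or buffers were also averaged together. Data originate from 3228 arrays in the Consortium for Functional Glycomics database, kept only where the protein sequence was available.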

[2] = target: Fuc(a1-2)[Gal(a1-3)]Gal(b1-3)GlcNAc
How it was run: as §1

[3] = target: Fuc(a1-2)[Gal(a1-3)]Gal(b1-3)GlcNAc(b1-2)Man(a1-3)[Fuc(a1-2)[Gal(a1-3)]Gal(b1-3)GlcNAc(b1-2)Man(a1-6)]Man(b1-4)GlcNAc(b1-4)GlcNAc
How it was run: as §1

[4] = target: Fuc(a1-2)[Gal(a1-3)]Gal(b1-4)Glc
How it was run: as §1

[5] = target: Fuc(a1-2)[Gal(a1-3)]Gal(b1-4)GlcNAc
How it was run: as §1

[6] = target: Fuc(a1-2)[Gal(a1-3)]Gal(b1-4)GlcNAc(b1-2)Man(a1-3)[Fuc(a1-2)[Gal(a1-3)]Gal(b1-4)GlcNAc(b1-2)Man(a1-6)]Man(b1-4)GlcNAc(b1-4)GlcNAc
How it was run: as §1

[7] = target: Fuc(a1-2)[Gal(a1-3)]Gal(b1-4)[Fuc(a1-3)]GlcNAc
How it was run: as §1

[8] = target: Fuc(a1-2)[Gal(a1-4)]Gal(b1-4)GlcNAc
How it was run: as §1

[9] = target: Fuc(a1-2)[GalNAc(a1-3)]Gal
How it was run: as §1

[10] = target: Fuc(a1-2)[GalNAc(a1-3)]Gal(b1-3)GalNAc(a1-3)[Fuc(a1-2)]Gal(b1-4)GlcNAc
How it was run: as §1

[11] = target: Fuc(a1-2)[GalNAc(a1-3)]Gal(b1-3)GlcNAc
How it was run: as §1

[12] = target: Fuc(a1-2)[GalNAc(a1-3)]Gal(b1-3)GlcNAc(b1-2)Man(a1-3)[Fuc(a1-2)[GalNAc(a1-3)]Gal(b1-3)GlcNAc(b1-2)Man(a1-6)]Man(b1-4)GlcNAc(b1-4)GlcNAc
How it was run: as §1

[13] = target: Fuc(a1-2)[GalNAc(a1-3)]Gal(b1-4)Glc
How it was run: as §1

[14] = target: Fuc(a1-2)[GalNAc(a1-3)]Gal(b1-4)GlcNAc
How it was run: as §1

[15] = target: Fuc(a1-2)[GalNAc(a1-3)]Gal(b1-4)GlcNAc(b1-2)Man(a1-3)[Fuc(a1-2)[GalNAc(a1-3)]Gal(b1-4)GlcNAc(b1-2)Man(a1-6)]Man(b1-4)GlcNAc(b1-4)GlcNAc
How it was run: as §1

[16] = target: Fuc(a1-2)[GalNAc(a1-3)]Gal(b1-4)GlcNAc(b1-3)Gal(b1-4)GlcNAc
How it was run: as §1

[17] = target: Fuc(a1-2)[GalNAc(a1-3)]Gal(b1-4)GlcNAc(b1-3)Gal(b1-4)GlcNAc(b1-3)Gal(b1-4)GlcNAc
How it was run: as §1

[18] = target: Fuc(a1-2)[GalNAc(a1-3)]Gal(b1-4)[Fuc(a1-3)]GlcNAc
How it was run: as §1

[19] = target: Fuc(a1-2)[GalNAc(a1-4)]Gal(b1-4)GlcNAc
How it was run: as §1

[20] = target: Fuc(a1-2)[GalNAc(b1-3)]Gal
How it was run: as §1

[21] = target: Fuc(a1-3)GlcNAc
How it was run: as §1

[22] = target: Fuc(a1-3)[Gal(b1-4)]Glc6S
How it was run: as §1

[23] = target: Fuc(a1-3)[Gal(b1-4)]GlcNAc
How it was run: as §1

[24] = target: Fuc(a1-3)[Gal(b1-4)]GlcNAc(b1-2)Man(a1-3)[Fuc(a1-3)[Gal(b1-4)]GlcNAc(b1-2)Man(a1-6)]Man(b1-4)GlcNAc(b1-4)GlcNAc
How it was run: as §1

[25] = target: Fuc(a1-3)[Gal(b1-4)]GlcNAc(b1-2)Man(a1-6)[Gal(b1-4)GlcNAc(b1-2)Man(a1-3)]Man(b1-4)GlcNAc(b1-4)GlcNAc
How it was run: as §1

[26] = target: Fuc(a1-3)[Gal(b1-4)]GlcNAc(b1-3)Gal(b1-3)[Fuc(a1-4)]GlcNAc
How it was run: as §1

[27] = target: Fuc(a1-3)[Gal(b1-4)]GlcNAc(b1-3)GalNAc
How it was run: as §1

[28] = target: Fuc(a1-3)[Gal(b1-4)]GlcNAc(b1-4)Gal(b1-4)[Fuc(a1-3)]GlcNAc
How it was run: as §1

[29] = target: Fuc(a1-3)[Gal(b1-4)]GlcNAc(b1-4)Gal(b1-4)[Fuc(a1-3)]GlcNAc(b1-4)Gal(b1-4)[Fuc(a1-3)]GlcNAc
How it was run: as §1

[30] = target: Fuc(a1-3)[Gal(b1-4)]GlcNAc(b1-6)[Gal(b1-3)GlcNAc(b1-3)]Gal(b1-4)Glc
How it was run: as §1

B1: Tachylectin-2 (Tachypleus tridentatus), TAL2_TACTR (protein)
chain: VGGESMLRGVYQDKFYQGTYPQNKNDNWLARATLIGKGGWSNFKFLFLSPGGELYGVLNDKIYKGTPPTHDNDNWMGRAKKIGNGGWNQFQFLFFDPNGYLYAVSKDKLYKASPPQSDTDNWIARATEIGSGGWSGFKFLFFHPNGYLYAVHGQQFYKALPPVSNQDNWLARATKIGQGGWDTFKFLFFSSVGTLFGVQGGKFYEDYPPSYAHDNWLARAKLIGNGGWDDFRFLFF
- glycan array binding signal (z-score) [1]: -0.34
- glycan array binding signal (z-score) [2]: -0.334
- glycan array binding signal (z-score) [3]: -0.294
- glycan array binding signal (z-score) [4]: -0.203
- glycan array binding signal (z-score) [5]: -0.331
- glycan array binding signal (z-score) [6]: -0.291
- glycan array binding signal (z-score) [7]: -0.323
- glycan array binding signal (z-score) [8]: -0.436
- glycan array binding signal (z-score) [9]: 3.55
- glycan array binding signal (z-score) [10]: 2.04
- glycan array binding signal (z-score) [11]: 1.7
- glycan array binding signal (z-score) [12]: 2.88
- glycan array binding signal (z-score) [13]: 3.28
- glycan array binding signal (z-score) [14]: 3.65
- glycan array binding signal (z-score) [15]: 4.37
- glycan array binding signal (z-score) [16]: 4.29
- glycan array binding signal (z-score) [17]: 4.11
- glycan array binding signal (z-score) [18]: 3.69
- glycan array binding signal (z-score) [19]: 3.88
- glycan array binding signal (z-score) [20]: -0.322
- glycan array binding signal (z-score) [21]: -0.364
- glycan array binding signal (z-score) [22]: -0.166
- glycan array binding signal (z-score) [23]: -0.314
- glycan array binding signal (z-score) [24]: -0.271
- glycan array binding signal (z-score) [25]: -0.276
- glycan array binding signal (z-score) [26]: -0.324
- glycan array binding signal (z-score) [27]: -0.292
- glycan array binding signal (z-score) [28]: -0.062
- glycan array binding signal (z-score) [29]: -0.312
- glycan array binding signal (z-score) [30]: -0.294
